Results: PubChem BioAssay AID588855 (National Center for Advancing Translational Sciences (NCATS), 2011)
The whole screen tested about 410,000 compounds, of which about 5,000 (1.2%) were called active. The shares of active, inactive and inconclusive entries below differ from those in the screen. Calls come from the whole dose curve; as a rule, active = well fitted inhibition curve with a large enough effect; inconclusive = small, poorly fitted or top-dose-only effect; inactive = no such curve, though single readings can be large or run the other way. Potencies beside an inconclusive call are fits to weak or partial responses and may not hold up.

Experiment: qHTS for Inhibitors of TGF-b; note: nearly all actives have a fitted effect of over 65% in size
Details: HepG2 CAGA-GFP TGF-b/SMAD3 reporter, GFP fluorescence, 18 h, TGF-beta stimulated, 500 pg/mL final; series mostly up to 46.1 µM
Description: TGF-b is a main component in the TGF-b signaling pathway which plays diverse roles in cellular and development pathways. TGF-b is the mediated by the transcription factors Smads. Although the Smad-dependent pathway is the primary canonical TGF-b signaling node, TGF-b1 can also activate alternative signaling pathways, including those involving MAPK (ERK, JNK and p38). This interaction may mediate or enhance Smad-dependent responses, or can exert Smad-independent effects. The complexity of this signaling cascade allows the TGF-b superfamily to perform unique, overlapping or redundant functions. We believe that targeting the TGF-beta pathway at the Smad-transcription factor level may eliminate the consequences of disrupting the entire pathway and offer specificity without affecting other signaling pathways. Smad3 is the primary transducer of TGF-b's signals and Smad3 regulates many functions attributed to TGF-b signaling. We hypothesize that Smad3 inhibitors will selectively eliminate Smad3-specific TGF-beta signals without undesired off-target effects. We aim to identify Smad3-small molecule antagonists using a quantitative high throughput screening (qHTS) approach.
A high-throughput assay was developed to screen the NIH Molecular Libraries Small Molecule Repository (MLSMR). This is a cell based assay, where TGF-b is tagged with GFP. A counterscreen is run that looks at cytotoxicity (please see summary AID).
MH087449NIH Chemical Genomics Center [NCGC]
NIH Molecular Libraries Probe Centers Network [MLPCN]
Assay Submitter (PI): Sushil Rane, National Institute of […]
Suspensions of trypsinized HEPG2 CAGA-GFP cells were dispensed into white, tissue culture-treated, solid 1536-well plates at 5uL/well (1000 cells/well final concentration) in DMEM medium supplemented with 1% FBS. Plates were incubated at 37 degrees C for 2 hours, after which 23 nL of compounds or DMSO were delivered to each well using a pin tool. One uL of recombinant TGF-beta in DMEM (1% FBS) was then dispensed (500 pg/mL final concentration), and plates were incubated at 37 degrees C for 18 hours. The plates were measured on an Acumen eX3 Explorer plate reader for GFP fluorescence (ex488/em500-530). GFP values were calculated by determining the mean GFP fluorescence of individual cells, and compiling these values for each well to determine a total well GFP signal. The %Activity was determined from the corrected fluorescence values. A titration of the known TGF-B inhibitor SB431542 was included to monitor plate performance, while unstimulated HEPG2 (-TGF-B) control wells were used to normalize %Activity of identified inhibitors; unstimulated wells corresponded to 100%Activity (full inhibition), while stimulated cell controls (+DMSO) were used to normalize 0%Activity (no inhibition).
Concentration-response curves were fitted to the signals arising from the resulting fluorescence. The concentration-effect curves were then classified based on curve quality (r2), response magnitude and degree of measured activity, and compounds were subsequently categorized based on their curve class.
Potency is the fitted concentration of half-maximal effect; tags give direction and shape of the fitted curve.

Structure (SMILES)	Potency
Cc1ccc(C)c(-c2csc(N)c2C(=O)OC(C)C)c1	inconclusive: 8.91 µM [inhibitor, partial curve, poor fit]
CCOC(=O)c1ccc(NC(=O)c2c(NC(=O)CCC(=O)O)sc3c2CCCCC3)cc1	inactive
CCc1nc2c(OCc3ccc(Cl)cc3Cl)cccn2c1N(C=O)Cc1ccc(OC)cc1	inconclusive: 20 µM [inhibitor, single point]
O=P(c1ccccc1)(c1ccccc1)c1nc(-c2ccc(Cl)cc2)oc1N1CCOCC1	inconclusive: 17.8 µM [inhibitor, single point]
COc1ccccc1CNC(=O)COC(=O)C1CCN(S(=O)(=O)c2ccc(C)c(C)c2)CC1	inactive
Cc1ccc(NC2=C(N3CCOCC3)C(=O)c3ccccc3C2=O)cc1	inconclusive: 11.2 µM [inhibitor, partial curve, poor fit]
CC(C)(C)c1ccc(C(=O)NCCC(=O)Nc2cc(Cl)ccc2N2CCOCC2)cc1	inconclusive: 22.4 µM [inhibitor, single point]
COc1ccccc1CNC(=O)C1CC(c2ccccc2F)=NO1 (configuration not stated)	inconclusive: 0.631 µM [inhibitor, full curve]
O=C(NC1(C(F)(F)F)C(=O)Nc2c1c(=O)[nH]c(=O)n2CCc1ccccc1)c1ccc(Cl)cc1 (configuration not stated)	inactive
O=C(ONC1=NCCCCC1)c1cccc([N+](=O)[O-])c1	inactive
CC(C)(C)c1ccc(OCCCCCCN2CCNCC2)cc1	inconclusive: 35.5 µM [inhibitor, single point]
COC(=O)c1ccc(COC(=O)c2[nH]c(C)c(C(C)=O)c2C)o1	inactive
Cc1cccc(C)c1NC(=O)CN(C)C(=O)c1cccc(S(=O)(=O)N2CCN(c3ccccc3)CC2)c1	inconclusive: 35.5 µM [inhibitor, single point]
CC(Sc1nnc(-c2ccccc2)c(-c2ccccc2)n1)C(=O)N1CCc2ccccc21 (configuration not stated)	inconclusive: 7.94 µM [inhibitor, partial curve, poor fit]
CCCCC1=CC2=C(c3ccco3)C(=O)C(C)(OC(=O)c3ccc(OC)cc3)C(=O)C2=CN1C1CCCCC1 (configuration not stated)	inactive
O=C(NC(Cc1cn(Cc2ccccc2)cn1)C(=O)O)OCC1c2ccccc2-c2ccccc21 (configuration not stated)	inconclusive: 6.31 µM [inhibitor, single point]
CCOc1ccc(Nc2c(S(=O)(=O)c3ccc(C)cc3)cnc3cc(OC)c(OC)cc23)cc1	inactive
Cc1ccc(/C=N/n2c(-c3ccncc3)n[nH]c2=S)s1	inactive
Fc1ccc(CNC(=S)NC2CCCCC2)cc1	inconclusive: 35.5 µM [inhibitor, single point]
Cc1ccc(CCNC(=O)CCCn2c(=O)c3ccccc3n(CC(=O)Nc3cc(Cl)ccc3C)c2=O)cc1	inconclusive: 2.82 µM [inhibitor, partial curve, poor fit]
O=C(CSc1nc2ccc(Cl)cc2[nH]1)N1CCN(C(=O)c2ccco2)CC1	inconclusive: 35.5 µM [inhibitor, single point]

Structure (SMILES)	Potency
Cc1ccc(NC(=O)CN2C(=O)NC3(CCCCC3C)C2=O)cc1S(=O)(=O)N1CCOCC1 (configuration not stated)	inactive
COc1ccc(NC(=S)NC2CC3CCC2C3)c(OC)c1 (configuration not stated)	inactive
N#Cc1nc(-c2cccs2)oc1NCc1ccc2c(c1)OCO2	inactive
Cc1ccc(-n2nc3c(N4CCC(C(=O)NCCc5cccs5)CC4)nnc(C)c3c2C)cc1	inconclusive: 1.78 µM [inhibitor, partial curve, poor fit]
CSc1nc(N2CCOCC2)c2c(c1C#N)CCCCC2	inconclusive: 15.8 µM [inhibitor, partial curve, poor fit]
OCC[C@@H]1C[C@H](O)[C@@H](O)[C@@]2(CCCCO2)O1	inconclusive: 35.5 µM [inhibitor, single point]
O=c1oc2cc(O)ccc2s1	inactive
CCCn1nc2cc(C(=O)NCCc3cccs3)ccc2c1OCC	inconclusive: 7.08 µM [inhibitor, full curve]
CC(O)(c1ccc(F)c(F)c1)c1nc(-c2cccc(F)c2)cs1 (configuration not stated)	inconclusive: 17.8 µM [inhibitor, single point]
O=C1c2oc3ccc(F)cc3c(=O)c2C(c2ccccc2)N1CC1CCCO1 (configuration not stated)	inconclusive: 5.62 µM [inhibitor, single point]
CCn1c(-c2cc(-c3cc(OC)ccc3OC)nc3ccccc23)n[nH]c1=S	inactive
O=C(COC(=O)c1cnc(Cl)c(Cl)c1)Nc1cccc(S(=O)(=O)N2CCOCC2)c1	inconclusive: 35.5 µM [inhibitor, single point]
CC(C)=C[C@@H]1C[C@H](C)[C@H]2CC[C@H](C)c3c(O[C@@H]4O[C@@H](C)[C@@H](O)[C@@H](O)[C@@H]4O)c(O)c(C)c1c32	inconclusive: 20 µM [inhibitor, single point]
Cc1cccc(N2CCN(C(=O)c3ccc4c(c3)c(C)c(C)n4C)CC2)c1C	inactive
COc1ccccc1NC(=O)N(Cc1ccco1)Cc1cc2cccc(C)c2[nH]c1=O	inconclusive: 25.1 µM [inhibitor, partial curve, poor fit]
COc1cc(C2c3c(n[nH]c3C)C(=O)N2c2ccc(C)cc2)ccc1O (configuration not stated)	inconclusive: 17.8 µM [inhibitor, single point]
O=C(CN1CCOCC1)Nc1ccc(S(=O)(=O)NC2CCCCC2)cc1	inconclusive: 22.4 µM [inhibitor, single point]
O=C(NCCN1CCNC1=O)C1CCC(=O)N(CCc2ccccc2)C1 (configuration not stated)	inconclusive: 3.16 µM [inhibitor, single point]
COc1cc2c(cc1OC)C(COc1ccc3c(C)cc(=O)oc3c1)N(C(=O)c1cccc(OC)c1OC)CC2 (configuration not stated)	inconclusive: 3.55 µM [inhibitor, partial curve]
COc1ccc(/C=N/NC(=O)c2cccnc2)cc1O	inactive
COCc1cc(CN2CCCC(C(=O)c3cccc(C(F)(F)F)c3)C2)ccc1OC (configuration not stated)	inconclusive: 7.08 µM [inhibitor, partial curve]
